Measured values as given in US20180289637A1, “SUBSTITUTED CYCLOHEXANONES” (CLEXIO BIOSCIENCES LTD., priority 2016, published 2018).

What was measured:
C57Bl/6 strain mice [1] = assay: Tail Suspension Test (mice), Example 13; conditions: 6 min TST; for reduction of immobility time from the saline control group: 30 min before test; for decrease of immobility time compared to vehicle WFI: 120 mg/kg p.o., 45 min before test
C57Bl/6 strain mice [2] = assay: Tail Suspension Test (mice), Example 10; conditions: 15 mg/kg ip, 30 min before test, 6 min TST

| SMILES | reduction of immobility time from the saline control group (C57Bl/6 strain mice [1]; 30 mg/kg ip) [%] | reduction of immobility time compared to the saline control group (C57Bl/6 strain mice [2]) [%] | reduction of immobility time from the saline control group (C57Bl/6 strain mice [1]; 15 mg/kg ip) [%] | decrease of immobility time compared to vehicle WFI (C57Bl/6 strain mice [1]) [%] |
| --- | --- | --- | --- | --- |
| CNC1(c2ccccc2Cl)CCCCC1=O (racemic) [Ketamine, ketamine] | −41.5 |  |  |  |
| CN[C@]1(c2ccccc2Cl)CCCCC1=O [Esketamine, S-ketamine, reference compound] | −34.7 | −41.3 | −26.2 | −91.0 |
| [2H]C1([2H])CCC[C@](NC)(c2ccccc2Cl)C1=O [Example 1, (2S)-2-(2-chlorophenyl)-6,6-dideuterio-2-[deuterio(methyl)amino]cyclohexanone, deuterium chloride] | −53.0 |  | −29.0 | −87.6 |
